Experimental data published in PubChem BioAssay AID938 (National Center for Advancing Translational Sciences (NCATS), 2007).
The campaign covered roughly 73,000 compounds. About 1,800 (2.5%) were called active. This list was built around the results that the source calls inconclusive (neither active nor inactive); the mix of calls is not that of the screen. Calls follow the shape of the dose curve; as a rule, active = well fitted activation curve with a large enough effect; inconclusive = small, poorly fitted or top-dose-only effect; inactive = no such curve, though single readings can be large or run the other way. Potencies of inconclusive entries are left out as doubtful fits.

assay: qHTS Assay for Agonists of the Thyroid Stimulating Hormone Receptor: Activators of Intracellular cAMP Concentrations in Parental HEK 293; conditions: parental HEK293 CNG cAMP sensor, membrane potential fluorescence; activation: at 57.1 µM (top of the series) unless noted; also: nearly all actives have a fitted effect of over 55% in size; as to activation: % of control where 0% means no effect
Outline: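 Counterscreen for endogenous-receptor signalling: CNG-channel HEK 293 cells report cAMP rise by membrane depolarization. After 60 min dye equilibration with 100 uM RO 20-1724, compounds incubated 30 min before bottom-read fluorescence at 590 nm.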
Potency is read from the fitted curve at half-maximal effect; tags tell the direction and shape of the fitted curve.

**Q.** For `CC(C)c1ccc(NC(=O)c2cccnc2)cc1`, which activation is on record?
**A.** inactive: 1.79% [at 11.4 µM]

**Q.** For `Cn1cccc1Cc1nnc(SCC(=O)NCc2ccc3c(c2)OCO3)n1CCc1ccccc1`, which Potency is on record?
**A.** inconclusive [activator, single point]

**Q.** Which Potency does the source give for `CCCN(CCC)C(=O)CSc1nc2ccccc2c(=O)n1C1CCCC1` here?
**A.** inconclusive [activator, partial curve]

**Q.** Which Potency does the source give for `COc1ccccc1-c1ccc2ncnc(NCc3cccnc3)c2c1` here?
**A.** inconclusive [activator, partial curve]

**Q.** Which Potency does the source give for `O=C(NCc1ccc2c(c1)OCO2)C1CCC(CNS(=O)(=O)c2ccccc2)CC1` (stereo unspecified) here?
**A.** inconclusive [activator, single point]

**Q.** With `CCOc1ccccc1NC(=O)c1ccccc1-c1nc(-c2ccccc2)no1` as the compound, how does the Potency read?
**A.** active: 15.8 µM

**Q.** With `C=CCn1c(SCc2nc3ccccc3c(=O)[nH]2)nnc1-c1cc2cc(Cl)ccc2o1` as the compound, how does the Potency read?
**A.** active: 31.6 µM

**Q.** For `CCOC(=O)c1ccc(-n2c(=S)sc3c(=O)[nH]c(C)nc32)cc1`, which “activation” value is on record?
**A.** inactive: 5.33%

**Q.** For `COc1ccc(NC(=O)C2CCCN(S(=O)(=O)c3cccc4nonc34)C2)c(OC)c1` (stereo unspecified), which “activation” value is on record?
**A.** inactive: -5.59%

**Q.** With `CS(=O)(=O)N(CC(=O)NCCC1=CCCCC1)c1ccc2c(c1)OCO2` as the compound, how does the Potency read?
**A.** inconclusive [activator, single point]

**Q.** For `CCN1CCN(c2cc(=O)n(C3CCCCC3)c(=O)[nH]2)CC1`, which Potency is on record?
**A.** inconclusive [activator, single point]

**Q.** With `COc1cccc(Cn2c(=O)c(-c3ccccc3)nc3cnc(OC)nc32)c1` as the compound, how does the “activation” value read?
**A.** inactive: 6.48%

**Q.** For `COC(=O)[C@@]1(Cc2ccccc2)[C@H]2c3cc(C(=O)N4CCCC4)n(C)c3C[C@H]2CN1C(=O)c1ccccc1`, which Potency is on record?
**A.** inconclusive [activator, partial curve]

**Q.** With `O=C(O)C[C@@H](C(=O)O)c1ccccc1[N+](=O)[O-]` as the compound, how does the Potency read?
**A.** inconclusive [activator, single point]

**Q.** Which Potency does the source give for `Cc1sc2nc(SCC(=O)OC(C)C)n(C)c(=O)c2c1C` here?
**A.** inconclusive [activator, partial curve]

**Q.** For `CN(Cc1ccccc1)C(=O)CSc1nc2ccccc2c(=O)n1Cc1ccco1`, which Potency is on record?
**A.** active: 25.1 µM

**Q.** With `CN(C)c1ccc(NC(=S)c2ccccn2)cc1` as the compound, how does the “activation” value read?
**A.** inactive: -15.4%

**Q.** Which Potency does the source give for `CCOC(=O)CCN(Cc1cccs1)S(=O)(=O)c1ccc(Cl)cc1` here?
**A.** inconclusive [activator, partial curve]

**Q.** For `Cn1c(=O)c(C(=S)NC(=O)C2CC2)c(N)n(Cc2ccccc2)c1=O`, which Potency is on record?
**A.** inconclusive [activator, single point]

**Q.** With `O=C(COC(=O)c1cc(-c2cccs2)nc2ccccc12)NCc1ccco1` as the compound, how does the “activation” value read?
**A.** inactive: 18.4%

**Q.** Which Potency does the source give for `CCSc1nnc(-c2cccc(S(=O)(=O)N(CC)CC)c2)n1Cc1ccccc1` here?
**A.** active: 15.8 µM

**Q.** Which Potency does the source give for `CCC(C)NC(=O)CN1C(=O)CC(C)(C)S(=O)(=O)c2ccccc21` (stereo unspecified) here?
**A.** inconclusive [activator, single point]

**Q.** With `O=C(c1cccc(C(=O)N2CCN(Cc3ccccc3)CC2)c1)N1CCN(Cc2ccccc2)CC1` as the compound, how does the Potency read?
**A.** active: 1.26 µM

**Q.** With `CCOc1ccc(C(C)C)cc1S(=O)(=O)Nc1ccc(Cl)cn1` as the compound, how does the Potency read?
**A.** inconclusive [activator, single point]

**Q.** With `c1ccc(-c2nnc(SCc3cn4ccsc4n3)o2)cc1` as the compound, how does the “activation” value read?
**A.** inactive: 7.19%

**Q.** Which Potency does the source give for `O=C(NCCN1CCN(Cc2ccccc2)CC1)C1c2ccccc2C(=O)N2CCc3ccccc3C12` (stereo unspecified) here?
**A.** inconclusive [activator, single point]

**Q.** With `COc1ccc(Cn2c(CCC(=O)N3CCN(c4ccccn4)CC3)nc3ncccc3c2=O)cc1` as the compound, how does the Potency read?
**A.** inconclusive [activator, single point]

**Q.** Which Potency does the source give for `CC(C)CC(c1nnnn1C(C)C)N1CCN(c2cccc(Cl)c2)CC1` (stereo unspecified) here?
**A.** active: 1 µM

**Q.** For `CC(C)(C)n1nnnc1C(c1ccc2ncccc2c1)N1CCSCC1` (stereo unspecified), which Potency is on record?
**A.** inconclusive [activator, partial curve]

**Q.** Which Potency does the source give for `CN(Cc1cccs1)c1ncnc2sccc12` here?
**A.** active: 15.8 µM

**Q.** For `O=C(CCC1N=C2c3ccccc3N=C(SCc3cccc(Cl)c3)N2C1=O)NCc1ccco1` (stereo unspecified), which Potency is on record?
**A.** inconclusive [activator, single point]

**Q.** For `O=C(CSc1nc2c(c(C(F)(F)F)n1)CCc1ccccc1-2)NCc1ccco1`, which Potency is on record?
**A.** active: 25.1 µM

**Q.** Which “activation” value does the source give for `O=C(c1cnccn1)N1CCC2(CC1)CN(c1ccccn1)C2` here?
**A.** inactive: 0.513%

**Q.** With `COc1ccc(CNc2ccnc(-c3c(C)noc3C)n2)c(OC)c1` as the compound, how does the “activation” value read?
**A.** inactive: 29.5%

**Q.** For `Clc1ccc(CSc2nnc(Cn3cnc4ccccc43)o2)cc1`, which Potency is on record?
**A.** inconclusive [activator, partial curve]

**Q.** For `CCn1c(SCc2ccc(OC)cc2)nnc1-c1ccncc1`, which Potency is on record?
**A.** active: 25.1 µM

**Q.** For `O=C(CSc1nnnn1-c1ccccc1)Nc1nc(-c2ccccc2)ns1`, which Potency is on record?
**A.** inconclusive [activator, single point]

**Q.** For `O=C(Cc1cn2ccsc2n1)Nc1ccccc1Oc1ccccc1`, which “activation” value is on record?
**A.** inactive: 24.6%

**Q.** For `CN(CC(=O)NCc1ccc(F)cc1)S(=O)(=O)c1cccc2nsnc12`, which Potency is on record?
**A.** inconclusive [activator, single point]

**Q.** With `CCc1sc(NC(=O)COC)nc1-c1ccccc1` as the compound, how does the Potency read?
**A.** inconclusive [activator, single point]

**Q.** For `COc1ncc2nc(-c3ccc(Cl)cc3)c(=O)n(-c3ccccc3)c2n1`, which Potency is on record?
**A.** inconclusive [activator, single point]

**Q.** For `O=C(C1CCC1)N(CCc1ccccc1)Cc1nc2ccccc2c(=O)[nH]1`, which Potency is on record?
**A.** inconclusive [activator, single point]

**Q.** For `O=C(Nc1nc(-c2ccc(S(=O)(=O)N3CCCC3)cc2)cs1)c1cccs1`, which Potency is on record?
**A.** inconclusive [activator, full curve]

**Q.** Which Potency does the source give for `COc1ccc(NC(=O)CSc2nnc(COc3ccccc3)n2Cc2ccco2)cc1OC` here?
**A.** inconclusive [activator, partial curve]

**Q.** Which Potency does the source give for `CC1CCCCN1C(=O)CSc1nc(C2CC2)nc2c1cnn2-c1ccccc1` (stereo unspecified) here?
**A.** inconclusive [activator, partial curve]

**Q.** Which Potency does the source give for `COc1ccc(C2CC(c3cc(OC)ccc3OC)n3nnnc3N2)cc1` (stereo unspecified) here?
**A.** inconclusive [activator, full curve]

**Q.** For `Cc1noc(C)c1CSc1nnc(-c2ccccc2)n1Cc1ccco1`, which Potency is on record?
**A.** active: 15.8 µM

**Q.** Which Potency does the source give for `C/C=C(\C)c1nnc(NC(=O)c2ccco2)s1` here?
**A.** inconclusive [activator, single point]

**Q.** With `COc1ccc(Oc2ncc3nc(-c4cccc(C#N)c4)c(=O)n(CCC#N)c3n2)cc1` as the compound, how does the Potency read?
**A.** inconclusive [activator, single point]

**Q.** Which Potency does the source give for `CCN(CC)S(=O)(=O)c1ccc2c(c1)nc(SCn1nnc3ccccc3c1=O)n2CC` here?
**A.** inconclusive [activator, single point]

**Q.** Which activation does the source give for `C/C(=N/O)c1ccc2cc(Br)c3ccccc3c2c1` here?
**A.** inactive: -1.8% [at 11.4 µM]

**Q.** For `CN(C)Cc1ccccc1-c1nc(N(C)C)c2ccccc2n1`, which Potency is on record?
**A.** active: 10 µM

**Q.** Which activation does the source give for `CN(CCc1ccccn1)c1ccc2c(c1)C(=O)c1ccccc1-2` here?
**A.** inactive: -30.6% [at 11.4 µM]

**Q.** Which Potency does the source give for `COC(=O)c1ccc(C2C(C(=O)OCC(C)C)=C(C)N=C3SCCC(=O)N32)cc1` (stereo unspecified) here?
**A.** inconclusive [activator, partial curve]

**Q.** Which Potency does the source give for `O=C(c1cccc(C(=O)N2CCN(c3ccccc3)CC2)c1)N1CCN(c2ccccc2)CC1` here?
**A.** inconclusive [activator, partial curve]

**Q.** Which Potency does the source give for `CCOc1nc(-c2ccccc2O)nc2ccccc12` here?
**A.** inconclusive [activator, single point]

**Q.** For `Cc1ccc2nc(SCC(=O)Nc3cc(C)on3)[nH]c2c1`, which “activation” value is on record?
**A.** inactive: -23.2%

**Q.** Which Potency does the source give for `CN1CCc2c(sc3c2C(=O)NC(c2ccc4c(c2)OCO4)N3)C1` (stereo unspecified) here?
**A.** inconclusive [activator, full curve]

**Q.** Which Potency does the source give for `CCCC[C@@H]1C[C@H]1C(NC(=O)c1cccs1)c1ccccc1C(F)(F)F` (stereo partly specified) here?
**A.** inconclusive [activator, partial curve]

**Q.** With `CC(=O)NCCNc1nc(-c2ccc3c(c2)OCO3)nc2ccccc12` as the compound, how does the “activation” value read?
**A.** inactive: 5.64%

**Q.** For `COCn1c(-c2cccc(Br)c2)nc2ccccc21`, which Potency is on record?
**A.** inconclusive [activator, single point]

**Q.** Which Potency does the source give for `CCOC(=O)c1cc2sccc2n1CC(=O)Nc1ccc(OC)cc1OC` here?
**A.** inconclusive [activator, full curve, poor fit]

**Q.** With `CCOc1ccccc1C(=O)NCC(=O)OCC(=O)c1ccc2c(c1)OCCO2` as the compound, how does the Potency read?
**A.** inconclusive [activator, single point]

**Q.** For `Cc1cccc2c1nc(-c1ccccc1)n1cnnc21`, which Potency is on record?
**A.** inconclusive [activator, full curve, poor fit]

**Q.** With `CCOc1ccc2cc(S(=O)(=O)N3CCN(C)CC3)ccc2c1` as the compound, how does the Potency read?
**A.** inconclusive [activator, single point]

**Q.** Which Potency does the source give for `COc1ccc(Oc2ncc3nc(CCc4ccccc4)c(=O)n(C)c3n2)cc1` here?
**A.** inconclusive [activator, full curve, poor fit]

**Q.** Which Potency does the source give for `CCCCOc1ccc(S(=O)(=O)N2CCCCCC2)cc1` here?
**A.** inconclusive [activator, single point]

**Q.** With `COc1ccc(OC)c2c(N3CCN(C)CC3)cc(C(F)(F)F)nc12` as the compound, how does the Potency read?
**A.** inconclusive [activator, single point]

**Q.** For `CCn1c(SCC(=O)OCc2ccccc2)nnc1-c1ccco1`, which Potency is on record?
**A.** inconclusive [activator, single point]

**Q.** With `COCC(=O)N1CCC[C@@]2(CCN(c3ncccn3)C2)C1` as the compound, how does the “activation” value read?
**A.** inactive: 7.13%

**Q.** With `COc1ccc(NC(=O)C2CCN(S(=O)(=O)c3cccnc3)CC2)cc1Cl` as the compound, how does the Potency read?
**A.** inconclusive [activator, single point]
